Source: the supplement of paper PMC10126150
Values marked as one replicate rest on one cluster of the flow cell; about a third of the high ones do not repeat.

Test system: ATP
Assay: switch fluorescence ratio, 500 uM ATP over buffer (Cy3 cluster intensity, sum of 5 cycles each) (fold (ratio)); higher = stronger signal-on switching upon ATP binding; sequences stand for … in TCGTCGGCAGCGTCAGATGTGTATAAGAGACAGTTTTTTTTTTTTTTTTTTTTTTTTT…TC
Conditions: aptamer strand: ATP DNA aptamer (quencher-CACCTGGGGGAGTATTGCGGAGGAAGG + anchor), 100 nM annealed; ATP concentration: 500 uM; one replicate
Outline: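 After annealing to 100 nM quencher-labelled ATP aptamer, Cy3-labelled switching-strand clusters on a modified Illumina MiSeq flow-cell were imaged in selection buffer. A second image followed after 15 min with 500 uM ATP at 22 °C, and five such buffer/ATP cycles were done, each separated by NaOH stripping and re-annealing. The fluorescence ratio, averaged per switch-domain sequence, is summed target-cycle over summed buffer-cycle Cy3 intensity per cluster, with clusters outside 100-1000 RFU excluded.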
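Note: ATP exposure 15 min at 22 °C before imaging.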

Row | Sequence | switch fluorescence ratio
1 | TCCGTATTT | 1.02
2 | CCGGGAGGGC | 1.08
3 | TAACTCTTAC | 1.2
4 | AGAAATCCGA | 0.972
5 | CGTAGTATTT | 1.01
6 | ACCTGAATCG | 1.1
7 | AAGGGGGTTC | 1.07
8 | TAGGCTATGC | 1.06
9 | GTGGGTATGA | 1.01
10 | GGTCTCGGTG | 0.978
11 | TGTGTAACTT | 1.01
12 | ATTACAAGAA | 1.02
13 | ATGTGCGTAT | 0.975
14 | AGGGCGACGG | 1.02
15 | AGGCGTCATA | 0.979
16 | CGGAAGGGTT | 1.02
17 | GCGGGGCGCC | 1.02
18 | CGTTCTATTA | 0.988
19 | GGTGTATGCC | 0.988
20 | GGAAACTCCA | 1.03
21 | TAATAAGTCT | 1.05
22 | TAAAATAGGT | 0.997
23 | AATCGGTGAA | 1.03
24 | GGAGTTAGGT | 1.03
25 | GCCCATAACA | 0.996

Row | Sequence | switch fluorescence ratio
26 | ATTCCTTAGA | 1.01
27 | GGCATATACC | 1.18
28 | GGCACGACAT | 1.12
29 | ATTATTTTA | 0.998
30 | AAGTATCGTG | 1.02
31 | GTTGAAGAAT | 1.03
32 | GACCTTGTAG | 0.954
33 | GACCTTAGGA | 1.01
34 | GCCTGCAGGG | 0.978
35 | ATCAGTATAA | 1.01
36 | TGGTTAGTTA | 1.05
37 | GCGAGTGAAT | 1.01
38 | TAGGTTGGC | 1.01
39 | GCTGTAGGG | 1
40 | CAGGCCAAGT | 1.03
41 | ATTGGCGGGC | 1.01
42 | CTGGCTTGTA | 1.01
43 | CCAATGCCTG | 1.12
44 | AGTGTGTCAA | 1.04
45 | GTTATACAT | 1.03
46 | GGATGAATG | 1.01
47 | TAGTTATCC | 0.977
48 | TATTGAAG | 0.985
49 | CTTAACCGTT | 0.993
50 | TAGGACCGTA | 1.02

Row | Sequence | switch fluorescence ratio
51 | CATATTAGCG | 0.958
52 | CACCGGGCTG | 1.16
53 | AATAGATTAC | 1.04
54 | CGGGCCGAGA | 1.13
55 | ATCATATGTT | 0.999
56 | TGCCGAAAAA | 1.24
57 | GGTGGCCCGT | 0.989
58 | TCGTGGCCTA | 1.03
59 | GGTGTCCCAT | 0.97
60 | TGCCAGCGGT | 0.996
61 | TCGGCAACCG | 1
62 | AGGACGTTGT | 0.993
63 | TAACTCATTT | 0.989
64 | GCGATCGTAA | 1.05
65 | GCAGTAAGTA | 1.02
66 | TATGCTCTGA | 1.01
67 | TGTGAGTATA | 0.967
68 | CAGGCTAGAC | 1.01
69 | TAGCAATCT | 3.37
70 | AGAATCCACC | 1.05
71 | AGAAACGGTT | 1.03
72 | GGATGCTAGT | 0.962
73 | TCGGAATCGA | 1.03
74 | TACGTCCCGT | 1.01
75 | CGGGGCCCAT | 1

Row | Sequence | switch fluorescence ratio
76 | GAAATAGCG | 0.945
77 | TTAGCTCCCT | 1.03
78 | ACATAGGTAG | 0.935
79 | AGGGCAG | 1.04
80 | GAAACACCTG | 1.14
81 | TTCTAGAAGT | 1.01
82 | ATAAGGCCAT | 0.994
83 | TTCATACAAG | 0.972
84 | AGACCTTTTG | 0.958
85 | AGTGAAGCGA | 1.02
86 | TTTGCTATTT | 1.08
87 | CACTCCTGAT | 1.01
88 | CGCCGACTT | 1.01
89 | AGGCCGTTAT | 1.04
90 | TTCCCTAAGT | 1
91 | CTAAAGGAGG | 0.975
92 | TCGGGGTGGT | 1.02
93 | TTAACATCCG | 0.972
94 | TATTTCTGGC | 0.934
95 | TACGAGGGAA | 1.02
96 | GGGTTAGTGT | 1.02
97 | CAGTCTATTA | 1.05
98 | GATCTCTTAA | 0.975
99 | GAAATACTGG | 1.06
100 | ATCCGTCTGT | 1.1

Row | Sequence | switch fluorescence ratio
101 | CAGTGGTAG | 0.986
102 | CGCTGCCACG | 0.994
103 | CTACCCGGAG | 1.17
104 | GTTACCAGTA | 0.967
105 | ATCGTACGAT | 0.947
106 | TGACTCACAT | 1.26
107 | GACGGCCAAA | 1.06
108 | GAATCCGACA | 1.13
109 | CGTAAATTAA | 1.02
110 | GAGGGAACTT | 0.995
111 | TAAGATTTA | 1.01
112 | ATCGTTTGGA | 0.97
113 | AGGTGTTGCC | 1.02
114 | TTGAAGATTG | 0.999
115 | CTCGTACTCT | 1.04
116 | TCATACTACT | 1.07
117 | TTGGACGCTG | 1
118 | ATAGGTGGAG | 0.966
119 | TCATCCGGCG | 1.41
120 | ATTTCGTTGG | 0.958
121 | ACTTGCTGTG | 0.98
122 | ATGGGGAGAC | 1.01
123 | TCATCAAACG | 1.02
124 | CATTGAATTT | 1.01
125 | TGGTACTGTA | 1.08

Row | Sequence | switch fluorescence ratio
126 | ACGATACTTG | 1.34
127 | AGAGAATCAT | 0.997
128 | GGATCCTATT | 1.01
129 | CCCTCGTGTG | 0.955
130 | TTGCGAGTCA | 0.985
131 | GTAAGCAGTT | 1
132 | GGCCCCTGCG | 1.01
133 | TACCGAGATC | 1.13
134 | AGACGGACCT | 1.18
135 | GAATATGTTC | 0.991
136 | AGGAATAGGG | 0.993
137 | AAGAACGGAA | 1.05
138 | TTCCTGCGAC | 2.8
139 | TCATGTAATG | 1.01
140 | ATTCGGTGTT | 1.02
141 | TTCCCGCCCT | 1.07
142 | TAAGACAATA | 1.04
143 | ACGGTCAGCC | 1.05
144 | TTTCCGCATA | 2.76
145 | CGTCGCCGAG | 1.01
146 | AATAAAGTCT | 1
147 | CTGCCCTCCC | 1.86
148 | TCCCGTAGGT | 1
149 | TATTTCGTAT | 0.999
150 | CAGCCCGCGT | 1.07

Row | Sequence | switch fluorescence ratio
151 | TATTTTGCTA | 0.993
152 | CAGGTTCTT | 0.946
153 | GGAGGACCCA | 0.998
154 | TGAAGGGTGT | 0.967
155 | CGAGTACACT | 1.06
156 | ACTTGCGTTG | 1.03
157 | GCACTATGCT | 1.04
158 | AATGCTAGTT | 1.06
159 | AAGTCGACCC | 1.03
160 | ATCAGTGGCC | 1.01
161 | AGGGAATCTA | 1.03
162 | TATTTGCATT | 0.987
163 | TAAAAGTGCA | 0.981
164 | GTGAGGAGC | 0.979
165 | GATTAATGTG | 0.998
166 | TGCGACTGTG | 1.07
167 | GATTTTGCCC | 0.998
168 | AGAGCCGATG | 1.03
169 | GGACACGTTT | 0.996
170 | AGAGGGGAAA | 1
171 | TCCATTTGAT | 1.01
172 | CAGTTCAACG | 1.03
173 | TGACGGACGC | 1.26
174 | TCATTACTTA | 1
175 | AAGAGCTATA | 1

Row | Sequence | switch fluorescence ratio
176 | CCGGGGACTT | 1.09
177 | ATGAGGCAAT | 4.54
178 | CTTCGATTGA | 1.02
179 | CTACAAATAA | 1.03
180 | GTTACAAATT | 1.06
181 | TTATGAGGAT | 1.02
182 | TAACTATAAT | 1.02
183 | ATGCTTGGAA | 1.04
184 | TGGCGGGCTC | 1.01
185 | GTCCTGATAC | 2.77
186 | TTGGGACCTT | 1.1
187 | AAGAGGTTAT | 1.02
188 | TTGGAAACTA | 1.13
189 | GTTCCAACCC | 0.983
190 | TGAAATCTCC | 2.37
191 | GGTGATAATA | 0.994
192 | CCGTCACTTG | 1.01
193 | ACAGTAAGGT | 1.03
194 | TGGATCAACA | 1
195 | CGTTTGCCAT | 1.03
196 | TATACGGTTG | 0.997
197 | CCGCCGGATA | 2.68
198 | CTAGGAGAGA | 0.982
199 | GTTGGACTTA | 1.01
200 | GTGGGGATCG | 0.992
